± gives the standard deviation. The list shows a part of the results, in another mix than the full data.
Test system: MIWI (PIWIL1) piRISC loaded with piRNA #1 (30 nt)
Experiment: pre-steady-state target cleavage rate (min^-1); MIWI and MILI are mouse PIWI proteins and EfPiwi is from a freshwater sponge; tags in brackets are library labels; higher = faster piRNA-guided slicing of the target
Settings: guide: piRNA #1 5'p-UGAGGUAGUAGGUUGUAUAGUAUCCAGAGG; auxiliary factor: 500 nM mouse GTSF1
Outline: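 Cleave-'n-Seq reactions paired 0.1 nM transcribed, DNA-blocked target RNA library with 1 nM active affinity-purified piRISC holding one synthetic guide, plus or minus 500 nM GTSF1 partner protein, in HEPES–potassium acetate buffer at 33 °C for 0–8 or 0–960 min. After sequencing of uncleaved targets and normalisation to depth and weakly complementary targets, the pre-steady-state cleavage rate was taken from a burst-and-steady-state fit. Three trials were pooled, and k3 was capped at 0.0001 min^-1.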

Sequence	pre-steady-state target cleavage rate
GGAGACCUAUGAAAACUACCUACUACCUCA	< 0.0001
GGAGUGGAUACUAUACAACCUACUACCUACA	0.717 ± 0.044
CGUCUGGAUACUAUACAUCCUACUACCUCA	1.8 ± 0.098
GGAGAGGAUACUUAUACAACCUACUACCUCA	1.27 ± 0.069
GGAGACCAUACUUUACUACCUACUACCUCA	0.207 ± 0.022
GCUCUGGAAACUAUACAACCUACAACCUCA	0.901 ± 0.099
GGAGAGGAUACUAUACAACCCACUACCUCA	0.658 ± 0.034
GGAGACGAUACUAUACAACCAACAACCUCA	0.15 ± 0.024
GGAGACCUUAGUAUACAACCUACUACCUGA	0.195 ± 0.03
GGUCUGGAAACUAUACAACCUACUAGCUCA	0.0186 ± 0.0084
GGAGACCUAUGUAUACAACCUUGAUGGAGA [g10:g19:cont:t1A]	< 0.0001
GGAGAGGAUACUAAACAACCUAGUACCUCA	0.0629 ± 0.018
GCUCUGGAUACUAUACAUCCUACAACCUCA	1.35 ± 0.11
GGUCUGGAUACUAUACACCUACUACCUCA	0.284 ± 0.033
GCUCAGGAUACUAUACAACGUACUACCUCA	0.999 ± 0.052
